Experimental data as given in the supplement of paper PMC3334620.
Whole data set: some 33,000 sequences, median “E-score (-0.5 to 0.5)” near -0.016, cut for the highest 2% near 0.32. Some of the results follow.

Each sequence was assayed against T1, Stp1 (UniProt B3LFK1) (assay: PBM E-score (8-mer binding enrichment) (E-score (-0.5 to 0.5)); higher = stronger / more preferred TF binding; most listed sequences are background and not binding sites). Settings: protein concentration: 200 nM; construct: GST-full length.
T1 sequence: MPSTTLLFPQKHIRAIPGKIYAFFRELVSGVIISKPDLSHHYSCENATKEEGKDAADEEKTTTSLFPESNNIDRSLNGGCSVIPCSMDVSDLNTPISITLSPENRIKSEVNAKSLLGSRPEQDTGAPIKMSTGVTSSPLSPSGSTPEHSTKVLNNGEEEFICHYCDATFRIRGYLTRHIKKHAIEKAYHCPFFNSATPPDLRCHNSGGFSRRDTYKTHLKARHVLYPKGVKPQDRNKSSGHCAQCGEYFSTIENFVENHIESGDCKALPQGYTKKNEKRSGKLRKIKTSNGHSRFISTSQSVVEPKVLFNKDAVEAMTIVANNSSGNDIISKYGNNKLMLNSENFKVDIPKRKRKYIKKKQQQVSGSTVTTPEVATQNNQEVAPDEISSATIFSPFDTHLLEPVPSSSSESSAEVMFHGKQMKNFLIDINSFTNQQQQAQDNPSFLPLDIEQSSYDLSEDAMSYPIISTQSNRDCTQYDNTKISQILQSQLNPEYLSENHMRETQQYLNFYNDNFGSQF
Procedure, shortened: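 Detection of bound protein used fluorescent anti-GST, with scans normalised by masliner. The proteins were GST-tagged yeast transcription factors applied at about 100-200 nM to universal all-10-mer Agilent arrays made double-stranded by primer extension. Each ungapped eight-base word, pooled with its reverse complement, was scored with an E-score from the Universal PBM Analysis Suite.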

Sequence	PBM E-score
ATCGGTCC	-0.132
CCAGCATA	-0.265
ACACTTCA	-0.176
CTTCAGGA	0.0371
AGTCAAAA	0.133
GAGTCGAA	-0.174
ATGATTCC	0.115
ACTTTACC	-0.0478
TGGGATAA	-0.0721
TCCTAGGA	0.0231
CCCCCCTA	-0.397
CGCATATA	0.0132
GGCGCGTA	0.186
GATATTCC	0.0635
TATGCACA	-0.0744
TAAAGTAA	0.0333
ACCTCAAG	-0.0455
CATTGAAC	0.0944
AATGACAT	-0.00671
CTTCATGC	-0.058
AGCGTCAC	-0.144
CTTGACCC	-0.248
AGATCAGG	-0.173
GTTCTATA	0.124
GAAAGTAA	0.00904

Sequence	PBM E-score
AAGTGACG	-0.00161
ACCGCCAG	-0.179
CCCATAGA	-0.325
GTGCGCAC	0.158
CGCTAAAA	0.14
ACATCGGT	-0.226
AAGAGCAA	-0.248
GGGGCATA	-0.118
AATGCAGC	-0.16
ACCAAAAG	0.187
CCGGATAG	0.00852
TCATCCCA	-0.163
AGTATTCA	0.0273
GACTCTAA	-0.126
CCAGTAAA	-0.0637
AGGCTGCG	0.00283
CCTGGGCC	-0.181
TAATTTCA	0.242
ACCGAGTG	-0.0999
TCATAAGA	-0.00833
TACATCCA	0.00245
CGCGGTAC	0.155
ACAGAGAA	-0.0516
CGGCCGAC	0.0963
CTAGGTGC	-0.196

Sequence	PBM E-score
GTAAGTCA	-0.0496
ACTGGCGG	-0.0959
CCTTTAAG	-0.207
ACCGGCGG	0.0942
TATTGAGA	0.0944
GTGGAAGA	-0.0607
CGACCGGA	-0.185
CCTGTAAG	-0.144
GCATCAAC	0.17
AAAATTTA	0.0665
ACTTCCCA	-0.109
ACGCCCGA	-0.19
CGAAAAAG	0.134
AATCAAGT	0.119
ACTAGAAT	-0.0535
AACTATGT	-0.0699
CCGGGGAG	-0.176
ACCAGGGA	-0.208
ATGCACAT	0.0286
ACTTCCAA	-0.0332
ATTTGTCA	0.00364
ATGTAAGA	0.238
ACACGACG	-0.106
CGGCTGGC	-0.0537
CCGTAACA	0.149

Sequence	PBM E-score
AAAGAAGG	-0.0209
AGCATTTG	-0.0324
ATAATGTC	-0.0933
GCGAAAGC	-0.00098
AGTACAGG	0.0326
AAGGGCTC	-0.0205
GATAAAGA	-0.0534
ACAGATTG	-0.051
CACTCATA	0.154
CGATGCCA	0.105
AATTGTTG	-0.0553
ACCACCTG	-0.113
GCAGTCAC	-0.213
GTGACTCA	0.0306
ACGCGCAA	0.165
CAAACCGC	0.0838
CCATCCGG	-0.32
CGATATAA	-0.0147
CCGGAAAA	0.0513
AGAATTGG	-0.0523
ACCAATGC	0.045
AATTTGGA	0.0489
CAAAGTAA	0.0712
ACCCTTCG	-0.0653
ACTTCAAA	-0.215

Sequence	PBM E-score
CAAGTCGG	-0.0998
ACTTTCGG	-0.289
AACGATTC	0.0142
GTAGGCAC	0.198
CTACACAG	-0.0726
TCGGTCCA	0.00548
GTACTGTA	-0.149
ATGGCGAC	0.0528
ACTAATAG	0.153
GATTTTCC	-0.0511
AAACTGAC	-0.201
CTCTTCAA	-0.125
ACGAACTA	-0.00686
CTACGGTA	-0.146
AAACACAG	0.0351
TCGTCAAA	0.159
CCCGTTAC	-0.0391
AAGCTCCG	0.0533
AGCGAAGA	-0.0506
AAACTGCT	-0.16
CCTGCTTA	-0.0853
CTGCTGTA	-0.0802
GAGATGTA	-0.143
GAAGAAGA	-0.0873
CGGGGTGC	0.0645

Sequence	PBM E-score
AAACTGTC	-0.12
ATCCCCTC	-0.285
CGTACGAA	0.186
AACTGCCT	0.0172
CTTGTTAA	0.122
ATACAGAT	0.0901
AAATATCA	0.174
CCCGATAC	-0.242
GTGCCAAA	0.119
AAGTTACC	0.0332
CTACGAAC	0.168
CCGGCCCA	-0.21
AAGGGTTG	-0.145
ACTAGTCA	-0.157
CTCGCATA	0.0401
GAAACGTC	-0.0114
CCAATAGG	0.0256
ATGGTCTA	-0.0594
CTATTAGA	-0.0335
TCTGAACA	-0.0325
CGCGGCGA	0.451
AACGGACG	0.0236
CTACTTTC	0.0804
ATGTTCTC	-0.234
ATGTCAGC	-0.019

Sequence	PBM E-score
ACGGTTCT	0.0457
AGCCGGGA	-0.089
CTTTAACA	0.161
GTTAATTA	0.106
AGAGTGAT	-0.0712
CGGCGAAC	0.317
ATTCAAAA	0.25
CGGTTGTA	-0.0398
TGATGCCA	0.288
GTTGAGGA	0.136
GTGTGCGA	-0.00917
CGGTCGAC	-0.0792
AAAATAAA	0.124
CCGCATTA	0.209
ATACCCTC	-0.0668
CTTTGTGC	0.203
TCCACTCA	-0.0458
AGTTATGA	-0.0432
ATCGAGTA	-0.128
GGGTAGAA	0.0651
ATGAAATA	0.143
ACCCAACG	-0.101
